Out of some 39,000 compounds screened, about 220 (0.56%) showed activity. The list shows a part of the results.
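Further: static incubation at 37 °C against the wild-type strain, values averaged over two biological replicates.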

In this assay the test system is Escherichia coli K-12 BW25113. Description: relative growth (OD600 normalised to plate interquartile mean) (fraction); higher = less growth inhibition, active = 0.2 or less. Particulars: 50 µM; LB; incubation time: overnight (16-24 h).
On to `C[C@H](CO)N1C[C@H](C)[C@H](CN(C)Cc2ccncc2)Oc2c(NS(=O)(=O)c3cn(C)cn3)cccc2C1=O`, for which the relative growth was inactive: 1.01.
With `CS(=O)(=O)Nc1ccc2c(c1)[C@H]1C[C@H](CC(=O)NCc3ccc(-c4ccccc4)cc3)O[C@@H](CO)[C@H]1O2` the figure was inactive: 0.989.
With `Cc1ccc(S(=O)(=O)N(C)C[C@@H]2OCCCC[C@@H](C)Oc3ccc(NC(=O)NC4CCCCC4)cc3C(=O)N([C@@H](C)CO)C[C@@H]2C)cc1` the figure was inactive: 1; with `C[C@@H]1CN([C@H](C)CO)C(=O)c2cc(NC(=O)Nc3cccc4ccccc34)ccc2O[C@@H]1CN(C)Cc1ccc(Cl)c(Cl)c1`, inactive: 1.04; with `Cc1noc(C)c1S(=O)(=O)Nc1ccc2c(c1)CC(=O)N([C@@H](C)CO)C[C@H](C)[C@H](CN(C)Cc1ccncc1)O2`, inactive: 0.983.
To `CN[C@@H]1[C@@H](C)O[C@@H](O[C@H]2[C@H](C)O[C@@H](O[C@@H]3/C(C)=C/C[C@@H]4C[C@@H](C[C@]5(C=C[C@H](C)[C@@H](C(C)C)O5)O4)OC(=O)[C@@H]4C=C(C)[C@@H](O)[C@H]5OC/C(=C\C=C\[C@@H]3C)[C@]54O)C[C@@H]2OC)C[C@H]1OC` belongs inactive: 0.788; to `COc1ccc2c3c(n(c2c1)C)[C@@H](CO)N(C[C@]13CCN(CC1)C(=O)c1ccncc1)C(=O)C1CCOCC1`, inactive: 0.989.
Regarding `O=C(C[C@H]1C[C@@H]2c3cc(NC(=O)NC4CCCC4)ccc3O[C@@H]2[C@H](CO)O1)NCc1ccc2c(c1)OCO2`, the relative growth was inactive: 0.958.
For the molecule `C[C@@H]1CCCCO[C@@H](CN(C)C(=O)c2ccccc2)[C@H](C)CN([C@H](C)CO)C(=O)c2cc(NC(=O)Cc3ccccc3)ccc2O1`, the relative growth is inactive: 0.991.
With `C[C@@H]1CN([C@H](C)CO)C(=O)c2cccc(NC(=O)NC3CCCCC3)c2O[C@H]1CN(C)S(C)(=O)=O`, the relative growth was inactive: 0.957.
With `O=C(OCC1OC(OC(=O)c2cc(O)c(O)c(OC(=O)c3cc(O)c(O)c(O)c3)c2)C(OC(=O)c2cc(O)c(O)c(OC(=O)c3cc(O)c(O)c(O)c3)c2)C(OC(=O)c2cc(O)c(O)c(OC(=O)c3cc(O)c(O)c(O)c3)c2)C1OC(=O)c1cc(O)c(O)c(OC(=O)c2cc(O)c(O)c(O)c2)c1)c1cc(O)c(O)c(OC(=O)c2cc(O)c(O)c(O)c2)c1` (configuration not stated) the figure was inactive: 0.647; with `CN(C)CC(=O)N[C@@H]1CC[C@H](CCNS(=O)(=O)c2ccccc2)O[C@@H]1CO`, inactive: 0.993.
With `C[C@@H]1CCCCO[C@@H](CN(C)C(=O)Nc2ccc3c(c2)OCO3)[C@@H](C)CN([C@H](C)CO)C(=O)c2cc(NS(=O)(=O)c3ccc(F)cc3)ccc2O1` the figure was inactive: 0.994; with `Cl.Cl.N=C(NCCCCCCNC(=N)NC(=N)Nc1ccc(Cl)cc1)NC(=N)Nc1ccc(Cl)cc1`, active: 0.0423.
With `COCC#Cc1ccc2c(c1)O[C@@H](CN(C)Cc1ccc3c(c1)OCO3)[C@@H](C)CN([C@H](C)CO)S2(=O)=O` the figure was inactive: 1.04; with `CCCCCCCCCCCC=C=CCCCC(=O)O`, inactive: 1.03; with `COc1ccc(C(=O)Nc2ccc3c(c2)C(=O)N(C)[C@H]2CC[C@H](CC(=O)NCC4CC4)O[C@@H]2CO3)cc1`, inactive: 0.993.
Regarding `Cc1ccc(S(=O)(=O)Nc2ccc3c(c2)C(=O)N([C@@H](C)CO)C[C@@H](C)[C@H](CN(C)Cc2ccc(Oc4ccccc4)cc2)O3)cc1`, the relative growth is inactive: 1.01.
To `C[C@H]1CN([C@@H](C)CO)C(=O)CCCn2cc(nn2)CO[C@@H]1CN(C)C(=O)Nc1ccc2c(c1)OCCO2` belongs inactive: 0.986; to `CS(=O)(=O)c1ccc(C(O)C(CO)NC(=O)C(Cl)Cl)cc1` (configuration not stated), inactive: 0.375; to `CCc1nnc(N)[nH]1`, inactive: 0.947.
Consider `NCCCCCCNC(=O)[C@H]1C[C@H]2C(=O)N[C@@H](Cc3ccccc3)C(=O)N2[C@H]1c1cccc(OCCO)c1`, for which the relative growth is inactive: 1.
To `Cn1c(=O)c2c(ncn2CC2OCCO2)n(C)c1=O` belongs inactive: 1.04; to `C[C@@H]1CCCCO[C@@H](CN(C)Cc2ccc(C(=O)Nc3ccccc3N)cc2)[C@@H](C)CN([C@H](C)CO)C(=O)c2cc(NC(=O)Nc3ccccc3)ccc2O1`, inactive: 1.05; to `Clc1ccc(COC(Cn2ccnc2)c2ccc(Cl)cc2Cl)cc1.O=[N+]([O-])O` (configuration not stated), inactive: 0.949.
To `C[C@@H]1CN([C@@H](C)CO)C(=O)c2cc(NS(=O)(=O)c3cn(C)cn3)ccc2O[C@@H](C)CCCCO[C@@H]1CN(C)S(=O)(=O)c1cn(C)cn1` belongs inactive: 1.01.
To `C[C@H](CO)N1C[C@H](C)[C@H](CN(C)Cc2ccc3c(c2)OCO3)Oc2ccc(NC(=O)Nc3cccc4ccccc34)cc2CC1=O` belongs inactive: 0.994; to `C[C@@H]1CN([C@H](C)CO)C(=O)c2cc(NC(=O)C3CCCCC3)ccc2O[C@@H]1CN(C)Cc1ccc(C(F)(F)F)cc1`, inactive: 1.01; to `C[C@@H]1CCCCO[C@H](CN(C)Cc2ccc(C(F)(F)F)cc2)[C@H](C)CN([C@@H](C)CO)C(=O)c2cc(NC(=O)Nc3ccccc3)ccc2O1`, inactive: 0.992.
Take `C[C@@H]1CN([C@@H](C)CO)C(=O)c2cc(NC(=O)Nc3cccc4ccccc34)ccc2O[C@@H]1CN(C)S(=O)(=O)c1cccs1`: the relative growth was inactive: 0.995.
With `CC(=O)N(C)c1nc(N)n(-c2ccccc2)n1` the figure was inactive: 1.01; with `Cc1noc(C)c1NC(=O)N[C@@H]1C=C[C@@H](CC(=O)N2CCN(C)CC2)O[C@@H]1CO`, inactive: 1.02.
With `CN1CCCN=C1COC(=O)C(O)(c1ccccc1)C1CCCCC1.Cl` (configuration not stated) the figure was inactive: 1; with `Cc1noc(C)c1NC(=O)N(C)C[C@@H]1Oc2c(NC(=O)c3ccc(-c4nccs4)cc3)cccc2C(=O)N([C@H](C)CO)C[C@@H]1C`, inactive: 1.06; with `CCS(=O)(=O)N1C[C@]2(CCN(CC2)C(=O)Cc2ccccc2)c2c(n(c3cc(ccc23)OC)C)[C@H]1CO`, inactive: 1.
Turning to `CCCNC(=O)N(C)C[C@H]1Oc2cc(C#Cc3ccccn3)ccc2S(=O)(=O)N([C@H](C)CO)C[C@H]1C`, the relative growth is inactive: 1.02.
With `C[C@@H]1CCCCO[C@H](CN(C)C(=O)CCC(F)(F)F)[C@@H](C)CN([C@H](C)CO)C(=O)c2cc(NC(=O)Nc3ccccc3)ccc2O1` the figure was inactive: 0.965.

(Values after the supplement of paper PMC9446081.)
